# From article PMC7272049 (2020)
# B1: mCTLA-4 hIgG1 [mouse] / WT mB7-1 mCherry [mouse] (parent complex)
# chain 1: not shown
# chain 2: VDEQLSKSVKDKVLLPCRYNSPHEDESEDRIYWQKHDKVVLSVIAGKLKVWPEYKNRTLYDNTTYSLIILGLVLSDRGTYSCVVQKKERGTYEVKHLALVKLSIKADFSTPNITESGNPSADTKRITCFASGGFPKPRFSWLENGRELPGINTTISQDPESELYTISSQLDFNTTRNHTIKCLIKYGDAHVSEDFTWEKPPEDPPDSKNTLVLFGAGFGAVITVVVIVVIIKCFCKHRSCFRRNEASRETNNSLTFGPEEALAEQTVFL
# B2: WT mB7-1 mCherry [mouse] / WT mPD-L1 GFP [mouse] (parent complex)
# chain 1: B1 chain 2
# chain 2: not shown
# Variants of: B1
# Assay: flow cytometry on cells; HEK 293 freestyle cells co-transfected with mB7-1 mCherry (mutant) and mPD-L1 GFP; 1 hour at room temperature; anti-human Alexa 647 secondary; mCherry & mPD-L1; read off a plot
row,Variant,response [% Bound]
1,chain 2 L59A,~99
2,chain 2 R30D,~7.7

# Continued, values first:
row,response [% Bound],Variant
1,~98,chain 2 L70D
2,~97,chain 2 K12A

# Variants of: B2
# Assay: flow cytometry on cells (co-transfection competition); value is mPD-1 hIgG1 bound to cells co-expressing mB7-1 mutant mCherry and mPD-L1 GFP; higher value = less cis mB7-1:mPD-L1 binding; no-B7-1 control (mCherry &); read off a plot
row,screen value [% Bound],Variant
1,~47,chain 1 L59A
2,~76,chain 1 K12A
3,~82,chain 1 L70D
